Experimental data reported in patent US20250381289A1 (Genmab, published 2025).

Tests used:
[1] = target: T1, EGFR on EGFR and cMET co-expressed tumor cell lines (UniProt P00533); experiment: flow cytometry, EBC-1 cells (co-express EGFR and cMET; both arms contribute)
T1 construct: whole, on cells

[2] = target: T2, cMET on EGFR and cMET co-expressed tumor cell lines (UniProt P08581); experiment: as above
T2 construct: whole, on cells
T2 sequence (P08581 25-1390 limits assumed): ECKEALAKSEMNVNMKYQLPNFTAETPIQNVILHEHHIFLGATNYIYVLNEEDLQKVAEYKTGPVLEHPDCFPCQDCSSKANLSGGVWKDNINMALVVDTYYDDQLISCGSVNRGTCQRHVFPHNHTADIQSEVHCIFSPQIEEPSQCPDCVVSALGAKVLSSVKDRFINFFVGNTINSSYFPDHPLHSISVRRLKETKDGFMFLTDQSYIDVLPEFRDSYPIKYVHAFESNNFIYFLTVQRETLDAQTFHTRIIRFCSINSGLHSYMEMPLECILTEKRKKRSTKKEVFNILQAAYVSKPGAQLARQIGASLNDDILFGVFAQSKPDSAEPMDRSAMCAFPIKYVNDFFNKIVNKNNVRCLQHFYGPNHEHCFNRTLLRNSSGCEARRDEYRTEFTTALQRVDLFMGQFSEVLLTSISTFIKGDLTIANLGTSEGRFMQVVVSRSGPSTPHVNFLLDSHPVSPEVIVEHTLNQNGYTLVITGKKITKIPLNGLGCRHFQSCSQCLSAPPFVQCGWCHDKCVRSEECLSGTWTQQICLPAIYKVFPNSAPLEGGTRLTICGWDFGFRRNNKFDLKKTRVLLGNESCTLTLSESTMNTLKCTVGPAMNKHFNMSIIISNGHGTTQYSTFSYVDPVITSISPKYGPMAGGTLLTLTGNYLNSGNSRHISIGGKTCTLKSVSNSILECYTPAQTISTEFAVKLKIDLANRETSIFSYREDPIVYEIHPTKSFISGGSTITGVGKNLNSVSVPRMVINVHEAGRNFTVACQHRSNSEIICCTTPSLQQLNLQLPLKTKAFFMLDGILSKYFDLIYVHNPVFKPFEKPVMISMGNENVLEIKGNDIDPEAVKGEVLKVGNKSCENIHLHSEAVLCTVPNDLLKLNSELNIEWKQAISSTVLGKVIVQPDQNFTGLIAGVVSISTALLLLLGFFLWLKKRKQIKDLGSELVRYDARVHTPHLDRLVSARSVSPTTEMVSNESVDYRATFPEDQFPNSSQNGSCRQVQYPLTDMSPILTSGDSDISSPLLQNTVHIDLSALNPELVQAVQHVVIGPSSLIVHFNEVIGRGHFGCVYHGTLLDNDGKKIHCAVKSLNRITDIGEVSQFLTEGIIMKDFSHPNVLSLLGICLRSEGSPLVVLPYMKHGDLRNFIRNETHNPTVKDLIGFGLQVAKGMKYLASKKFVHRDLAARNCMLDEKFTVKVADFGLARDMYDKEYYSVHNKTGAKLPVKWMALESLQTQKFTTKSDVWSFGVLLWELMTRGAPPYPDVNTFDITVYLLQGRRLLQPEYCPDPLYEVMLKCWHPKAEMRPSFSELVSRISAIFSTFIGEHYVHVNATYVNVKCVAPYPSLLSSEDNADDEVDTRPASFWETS

EC50 (read off the curve) [1]: ~4 nM
EC50 (read off the curve) [2]: ~4 nM
B1: Bsab 68 WT (bispecific antibody, human IgG1)
chain 1: QVQLVESGGGVVQPGRSLRLSCAASGFTFSTYGMHWVREAPGKDLEWVAVIWDDGSYKYYGDSVKGRFTISRDNSKNTLYLQMNSLRAEDTAVYYCARDGITMVRGVMKDYFDYWGQGTLVTVSSGGGGSGGGGSGGGGSGGGGSAIQLTQSPSSLSASVGDRVTITCRASQDISSALVWYQKKPGKAPKLLIYDASSLESGVPSRFSGSESGTDFTLTISSLQPEDFATYYCQQFNSYPLTFGKGTKVEIKGGGGS[omitted - human IgG1 Fc with changes]
chain 2: QVQLVQSGAEVKKPGASVKVSCKASGYIFTAYTMHWVRQAPGQKLEWMGWIKPNNGLANYAQKFQGRVTMTRDTSISTAYMELSRLRSDDTAVYYCARSEITTEFDYWGQGTLVTVSSGGGGSGGGGSGGGGSGGGGSDIVMTQSPDSLAVSLGERATINCKSSESVDSYANSFLHWYQQKPGQPPKLLIYRASTRESGVPDRFSGSGSGTDFTLTISSLQAEDVAVYYCQQSKEDPLTFGDGTKVEIKGGGGS[omitted - human IgG1 Fc with S354C T366S L368A Y407V (EU numbers)]
notes: also called Basb 68 WT
